From the supplement of paper PMC4967469
A lower IC50 marks a more sensitive line; fits outside the tested doses are given as limits. AUC is the area under the same curve over the 256-fold range up to the top dose, as a fraction; it is 1 without any effect and falls as sensitivity rises. For part of these data: A top dose marked as inferred was calculated from the reported fits.

Experiments:
Experiment in all cases: Viability of human cancer cell lines after 72 h of drug (GDSC screen)
Roscovitine = compound: CC[C@H](CO)Nc1nc(NCc2ccccc2)c2ncn(C(C)C)c2n1 [Roscovitine]; conditions: top dose 16 µM; top dose inferred
Description: (§1)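 Human cancer cell lines in 384-well plates, medium with 10% serum, drug for 72 h over a 256-fold dose range (nine 2-fold or five 4-fold steps up to the top dose). Adherent lines were fixed and stained with the nucleic acid dye Syto60, suspension lines read with resazurin; signal relative to control wells, capped at 0 and 100%. One two-parameter sigmoid per drug and line, fitted in a mixed model over all curves with the slope shared within a line.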

Midostaurin = compound: CO[C@@H]1[C@H](N(C)C(=O)c2ccccc2)C[C@H]2O[C@]1(C)n1c3ccccc3c3c4c(c5c6ccccc6n2c5c31)C(=O)NC4 [Midostaurin]; conditions: top dose 0.512 µM; top dose inferred
Description: as §1

Mitomycin C = compound: CO[C@@]12[C@H](COC(N)=O)C3=C(C(=O)C(C)=C(N)C3=O)N1C[C@@H]1N[C@@H]12 [Mitomycin C]; conditions: top dose 16 µM
Description: as §1

Bosutinib = compound: COc1cc(Nc2c(C#N)cnc3cc(OCCCN4CCN(C)CC4)c(OC)cc23)c(Cl)cc1Cl [Bosutinib]; conditions: top dose 2 µM
Description: as §1

NVP-BHG712 = compound: Cc1ccc(C(=O)Nc2cccc(C(F)(F)F)c2)cc1Nc1nc(-c2cccnc2)nc2c1cnn2C [NVP-BHG712]; conditions: top dose 10.24 µM; top dose inferred
Description: as §1

IOX2 = compound: O=C(O)CNC(=O)c1c(O)c2ccccc2n(Cc2ccccc2)c1=O [IOX2]; conditions: top dose 0.1 µM; top dose inferred
Description: as §1

Cell Line | AUC (Roscovitine) | IC50 (Roscovitine) | AUC (Midostaurin) | IC50 (Midostaurin) | AUC (Mitomycin C) | IC50 (Mitomycin C) | AUC (Bosutinib) | IC50 (Bosutinib) | AUC (NVP-BHG712) | IC50 (NVP-BHG712) | AUC (IOX2) | IC50 (IOX2)
SK-MM-2 (myeloma, suspension) | 0.985 | > 16 µM | 0.921 | > 0.512 µM | 0.645 | 2.57 µM | 0.987 | > 2 µM | 0.863 | 9.47 µM | 0.98 | > 0.1 µM
SK-N-DZ (neuroblastoma, adherent) | 0.973 | > 16 µM | 0.955 | > 0.512 µM | 0.635 | 2.34 µM | 0.892 | > 2 µM | 0.955 | > 10.2 µM | 0.986 | > 0.1 µM
SK-N-FI (neuroblastoma, adherent) | 0.944 | > 16 µM | 0.989 | > 0.512 µM | 0.829 | 9.86 µM | 0.977 | > 2 µM | 0.884 | > 10.2 µM | 0.988 | > 0.1 µM
SK-PN-DW (Ewing sarcoma, adherent) | 0.958 | > 16 µM | 0.85 | 0.41 µM | 0.153 | 0.0799 µM | 0.881 | > 2 µM | 0.922 | > 10.2 µM | 0.976 | > 0.1 µM
SLVL (B-cell lymphoma, suspension) | 0.938 | > 16 µM | 0.943 | > 0.512 µM | 0.247 | 0.178 µM | 0.964 | > 2 µM | 0.863 | 9.72 µM | 0.984 | > 0.1 µM
SNU-C1 (large intestine, suspension) | 0.94 | > 16 µM | 0.932 | > 0.512 µM | 0.591 | 2 µM | 0.917 | > 2 µM | 0.967 | > 10.2 µM | 0.971 | > 0.1 µM
ST486 (Burkitt lymphoma, suspension) | 0.81 | 7.28 µM | 0.861 | 0.356 µM | 0.386 | 0.505 µM | 0.813 | 0.93 µM | 0.779 | 3.69 µM | 0.989 | > 0.1 µM
SU-DHL-4 (B-cell lymphoma, suspension) | 0.917 | 11.6 µM | 0.996 | > 0.512 µM | 0.599 | 1.73 µM | 0.975 | > 2 µM | 0.834 | 4.22 µM | 0.997 | > 0.1 µM
SU-DHL-6 (B-cell lymphoma, suspension) | 0.92 | 13.2 µM | 0.885 | 0.314 µM | 0.468 | 0.837 µM | 0.914 | 1.57 µM | 0.667 | 1.63 µM | 0.995 | > 0.1 µM
SU-DHL-16 (B-cell lymphoma, suspension) | 0.975 | > 16 µM | 0.822 | 0.199 µM | 0.35 | 0.435 µM | 0.804 | 0.696 µM | 0.265 | 0.172 µM | 0.996 | > 0.1 µM
SUP-HD1 (Hodgkin lymphoma, suspension) | 0.797 | 7.16 µM | 0.941 | > 0.512 µM | 0.366 | 0.436 µM | 0.965 | > 2 µM | 0.782 | 4.08 µM | 0.987 | > 0.1 µM
SUP-T1 (T-cell lymphoblastic leukaemia, suspension) | 0.99 | > 16 µM | 0.892 | 0.506 µM | 0.206 | 0.151 µM | 0.97 | > 2 µM | 0.8 | 4.44 µM | 0.99 | > 0.1 µM
SW684 (fibrosarcoma, adherent) | 0.951 | > 16 µM | 0.939 | > 0.512 µM | 0.933 | > 16 µM | 0.983 | > 2 µM | 0.983 | > 10.2 µM | 0.97 | > 0.1 µM
SW962 (urogenital system, adherent) | 0.94 | > 16 µM | 0.951 | > 0.512 µM | 0.239 | 0.143 µM | 0.961 | > 2 µM | 0.955 | > 10.2 µM | 0.966 | > 0.1 µM
TE-1 (oesophagus, adherent) | 0.932 | > 16 µM | 0.939 | > 0.512 µM | 0.24 | 0.142 µM | 0.922 | > 2 µM | 0.982 | > 10.2 µM | 0.966 | > 0.1 µM
TE-5 (oesophagus, adherent) | 0.907 | > 16 µM | 0.972 | > 0.512 µM | 0.246 | 0.164 µM | 0.976 | > 2 µM | 0.975 | > 10.2 µM | 0.973 | > 0.1 µM
TE-6 (oesophagus, adherent) | 0.903 | > 16 µM | 0.939 | > 0.512 µM | 0.478 | 0.863 µM | 0.984 | > 2 µM | 0.925 | > 10.2 µM | 0.984 | > 0.1 µM
